# Measurements reported in the RNAGym collection of RNA variant scans (doi:10.7554/elife.90254).
# The source gives no read counts; variants with many changes may rest on few reads.
# B1: OR4K15 (parent)
# chain: GUUAACGGUCAUAGGCCAUGGAAACUAGGAGCACCAUUUCGCUGCCAGUGAAGAAAUGAACAAAGAAAAUCUGGGCCAGGCAGGCAUCAAAAGAAAUAGUCUUGCGCUCAACCAGAAAGUCUGUAAUCAUUUUAAGGGUA
# Variants of: B1
# Assay: self-cleavage, relative activity (ratio to wild type); higher = more cleavage; in vitro, sequencing; the parent is a self-cleaving ribozyme
row,Variant,self-cleavage
1,GUUAACGGUCAUAGGCCAUGGAAACUAAGAGCACCAUUUCGCAGCCAGUGAAGAGAUGAACAAAGGAAAUCUGGGCCAGGCAGGCAUCAAAAGAAAUAGUCUUGCGCUCAACCAGAAAGUCUGUAAUCAUUUUAAGGGUA [G28A U43A A55G A66G],1.37
2,GUUAACGGUCAUAGGCCAUGGAAACUAUGAGCACCACUUCGCUGCCGGUGAAGAAAUGAACAAGGAAAAUCUGGGCCAGGCAGGCAUCAAAAGAAAUAGUCUUGCGCUCAACCAGAAAGUCUGUAAUCAUUUUAAGGGUA [G28U U37C A47G A64G],1.01
3,GUUAACGGUCAUAGGCCAUGGAAACUAAGAGCACCAUUUCGCCGCCAGUGAAGAAAUGAACAAAGAAAAUCUGGGCCAGGCAGGCAUUAAAAGAAAUAGUCUUGCGCUCAACCAGAAAGUCUGUAAUCGUUUUAAGGGUA [G28A U43C C88U A129G],0.32
4,GUUAACGGUCAUAGGCCAUGGAAACUUGGAGCACCAUUUCGCUGCCAGCGUAGAAAUGAACAAAGUAAAUCUGGGCCAGGCAGGCAUCAAAAGAAGUAGUCUUGCGCUCAACCAGAAAGUCUGUAAUCAUUCUAAGGGUA [A27U U49C A51U A66U A96G U132C],1.55
5,GUUAACGGUCAUAGGCCAUGGAAACUAAGAGCACCAUUUCGCUGCCAGUGAAGAAAUGAACAAAGAAGAUCAGGGCCAGGCAGGCAUCAAAAGAAAUAGUCUUGCGCUCAACCAGGAAGUCUGUAAUCAUUUUAAGGGUA [G28A A68G U72A A116G],0.06
6,GUUAACGGUCAUAGGCCAUGGAAACUAGAAGCACCAUUUCGCUGCCAGUGAAGGAAUGAACAAAGAAAAUCUGGGCCAGGCAGGCAUCAAAAGAAAUAGUCUUGCGCUCAACCAGAAAGUCUGUAAUCAUUUUAAGGGUG [G29A A54G A140G],0.54
7,GUUAACGGUCAUAGGCCAUGGAAACUAAGAGCACCAUUUCGCUGCCAGUGAAGAAAUGAACAAAGAAAAUCUGGGCCAGGCAGGCAUCAAAAGAAAUGGUCUUGCGCUCAACCAGAAAGUCCGUAAUCAUUUUAAGGGUA [G28A A98G U122C],0.04
8,GUUAACGGUCAUAGGCCAUGGAAACUAUGAGCACCAUUUCGCUGCCAGUGAAGAAAUGAACAAGGAAAAUCUGGGCCAGGCAGGCAUCAAAAGAAGUAGUCUUGCGCUCAACCAGAAAGUCUGUAAUCAAUUUAAGGGUA [G28U A64G A96G U130A],1.82
9,GUUAACGGUCAUAGGCCAUGGAAACUAUGAGCGCCAUUUCGCUGCCAGUGAAGAAAUGAACAAAGAAAAUCUGGGCCAGGCACGCAUCAAGAGAAAUAGUCUUGCGCUCAACCAGAAAGUCAGUAAUCAUUUUAAGGGUA [G28U A33G G83C A91G U122A],0.04
10,GUUAACGGUCAUAGGCCAUGGAAACUAGAUGCACCAUUUCGCUGCCAGUGAAGAAAUGAACAAAGAAAGUCUGGGCCAGGCAGGCAUCAAAGGAAAUAGUCUUGCGCUCAACCAGAAAGUCUGUAAUCAUUUUAAGGGUA [G29A A30U A69G A92G],2.22
11,GUUAACGGUCAUAGGCCAUGGAAACUUGGAGCACCAUUUCGCUGCCAGCGAAGAAAUGAACAAAGAAAAUCUGGGCCAGGCAGGCAUCAAAAGGAAUAGUCUUGCGCUCAACCAGAAAGUCUGUAAUCAUUUUAAGGGUA [A27U U49C A94G],1.45
12,GUUAACGGUCAUAGGCCAUGGAAACUACGAGCACCAUUUCGCUGCCAGUGAAGAAAUGAACAAAGAAAAUCUGGGCCAGGCAGGCAUCAAAAGAGAUAGUCUUGCGCUCAACCAGAAAGUCUGUAAUCAUUCUAAGGGUA [G28C A95G U132C],2.89
13,GUUAACGGUCAUAGGCCAUGGAAACUAUGAGCACCAUUUCGCUGCCAGUGAAGAAAUGGACAAAGAAAAUCUGGGCCAGGCAGGCAUCAAAAGAAAUAGUCUUUCGCUCAACCAGAAAGUCUGUAGUCAUUUUAAGGGUA [G28U A59G G104U A126G],0.01
14,GUUAACGGUCAUAGGCCAUGGAAACUUGGAGCACCAUUUCGCUGCCAGUGAAGAAAUGAACAAAGAAAAUCUGGGCCAGGCAGGCAUCAAAAGAAAUAGUCUUGCGCUCAACCAGAAAGUCUGUAAUCAUAUUAAGGGUU [A27U U131A A140U],0.9
15,GUUAACGGUCAUAGGCCAUGGAAACUAGAAGCCCCGUUUCGCUGCCAGUGAAGAGAUGAACAAAGAAAAUCUGGGCCAGGCAGGCAUCAAAAGAAAUAGUCUUGCGCUCAACCAGAUAGUCUGUAAUCAUUUUAAGGGUA [G29A A33C A36G A55G A117U],0.94
16,GUUAACGGUCAUAGGCCAUGGAAACUUGGAGCACCAUUUCGCAGCCAGUGAAGAAAUGAACAAAGAAAAUCUGGGCCAGGCAGGCAUCAAAAGAAAUAGUCUUGCGCUCAACCAGAAAGUCUGAAAUCAUUUUAAGGGUA [A27U U43A U124A],0.56
17,GUUAACGGUCAUAGGCCAUGGAAACUUGGAGCACCAUUUCGCUGCCAGUGAAGAAAUGAACAAAGAAAAUCUGGGCCAGGCAGGCAUCAAAAGAAAUAGUCUUGCGCCCAACCAGAAAGUCUGUAAUCACUUUAAGGGUA [A27U U108C U130C],0.01
18,GUUAACGGUCAUAGGCCAUGGAAACUAGAUGCGCCAUUUCGCUGCCAGUGAUGAAAUGAACAAAGAAAAUCUGCGCCAGGCAGGCAUCAAAAGAAAUAGUCUUGCGCUCAACCAGAAAGUCUGUAAUCAUUUUAAGGGUA [G29A A30U A33G A52U G74C],0.24
19,GUUAACGGUCAUAGGCCAUGGAAACUUGGAGCACCAUUUCGCUGCCAGCGAUGAAACGAACAAAGAAAAUCUGGGCCAGGCAGGCAUCAAAAGAAAUAGUCUUGCGCUCAACCAGAAAGUCUGUAAUCAUUUUAAGGGUA [A27U U49C A52U U57C],0.42
20,GUUAACGGUCAUAGGCCAUGGAAACUAAGAGCACCAUUUCGCUGCCAGUGAAGAAAUGAACAAAGAUAAUCUGGGCCAGGCAGGCGUCAAAAGAAAUAGUCUUGCGCUCAACCAGAAAGUCUGUAAUCAUUUUAAGGGUA [G28A A67U A86G],2.34
21,GUUAACGGUCAUAGGCCAUGGAAACUAAGAGCACCAUCUCGCUGCCAGUGAAGAAAUGAGCAAAGAAAAUCUGGGCCAGGCAGGCAUCAAAAGAAAUAGUCCUGCGCUCGACCAGAAAGUCUGUAAUCAUUUUAAGGGUA [G28A U38C A60G U102C A110G],0.2
